Data on 2 molecules can be found in patent US20210147549A1 (MOMENTA PHARMACEUTICALS, published 2021).

This experiment concerns the target T1, Recombinant, Histidine tagged, PD-L1 (9049-B7 R&D Systems) (UniProt Q9NZQ7 partial chain).
T1 construct: Bought protein; not shown: histidine tag
The experiment in a line: SPR, His-tagged PD-L1 captured by anti-6xHis antibody, antibody or construct as analyte, 1:1 Langmuir model.

T1 sequence (Q9NZQ7 19-239 limits assumed): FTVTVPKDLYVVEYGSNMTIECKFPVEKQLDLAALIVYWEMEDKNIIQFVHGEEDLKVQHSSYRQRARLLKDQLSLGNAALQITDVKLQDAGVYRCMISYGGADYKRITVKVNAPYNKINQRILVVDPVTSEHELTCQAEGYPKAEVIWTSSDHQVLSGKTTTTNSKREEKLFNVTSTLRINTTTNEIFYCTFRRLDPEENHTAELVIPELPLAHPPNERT

B1: Fc-antigen binding domain construct 8 (PD-L1) (Fc fusion)
chain: [human IgG1 Fc with D399K K409D (EU numbers) left out][about 250 residues left out]
heavy: EVQLLESGGGLVQPGGSLRLSCAASGFTFSSYIMMWVRQAPGKGLEWVSSIYPSGGITFYADTVKGRFTISRDNSKNTLYLQMNSLRAEDTAVYYCARIKLGTVTTVDYWGQGTLVTVSSASTKGPSVFPLAPSSKSTSGGTAALGCLVKDYFPEPVTVSWNSGALTSGVHTFPAVLQSSGLYSLSSVVTVPSSSLGTQTYICNVNHKPSNTKVDKKV[human IgG1 Fc with changes left out]
light: QSALTQPASVSGSPGQSITISCTGTSSDVGGYNYVSWYQQHPGKAPKLMIYDVSNRPSGVSNRFSGSKSGNTASLTISGLQAEDEADYYCSSYTSSSTRVFGTGTKVTVLGQPKANPTVTLFPPSSEELQANKATLVCLISDFYPGAVTVAWKADGSPVKAGVETTKPSKQSNNKYAASSYLSLTPEQWKSHRSYSCQVTHEGSTVEKTVAPTECS
notes: also called S3W-AA-AVE; Construct 8 (anti-PD-L1)
With B1, the Kd was determined as 0.027 nM.

B2: Fc-antigen binding domain construct 9 (PD-L1) (Fc fusion)
heavy 1: EVQLLESGGGLVQPGGSLRLSCAASGFTFSSYIMMWVRQAPGKGLEWVSSIYPSGGITFYADTVKGRFTISRDNSKNTLYLQMNSLRAEDTAVYYCARIKLGTVTTVDYWGQGTLVTVSS[human IgG1 constant region with D399K K409D (EU numbers) left out][about 250 residues left out]
heavy 2: EVQLLESGGGLVQPGGSLRLSCAASGFTFSSYIMMWVRQAPGKGLEWVSSIYPSGGITFYADTVKGRFTISRDNSKNTLYLQMNSLRAEDTAVYYCARIKLGTVTTVDYWGQGTLVTVSSASTKGPSVFPLAPSSKSTSGGTAALGCLVKDYFPEPVTVSWNSGALTSGVHTFPAVLQSSGLYSLSSVVTVPSSSLGTQTYICNVNHKPSNTKVDKKV[human IgG1 Fc with changes left out]
light: QSALTQPASVSGSPGQSITISCTGTSSDVGGYNYVSWYQQHPGKAPKLMIYDVSNRPSGVSNRFSGSKSGNTASLTISGLQAEDEADYYCSSYTSSSTRVFGTGTKVTVLGQPKANPTVTLFPPSSEELQANKATLVCLISDFYPGAVTVAWKADGSPVKAGVETTKPSKQSNNKYAASSYLSLTPEQWKSHRSYSCQVTHEGSTVEKTVAPTECS
notes: also called S3A-AA-AVE; Construct 9 (anti-PD-L1)
Turning to B2, the Kd came out at 0.034 nM.

As usually defined, the Kd is a measure of binding affinity in units of concentration.
